# Measured values: the supplement of paper PMC8728848
# Some of the results follow.
# B1: B1567 (Bifidobacterium sp) (protein)
# chain: MKFTTAKKAVALTGAVAMLVSVAACGSDSGKSSQPAQDSDVKEITVWAWEPSLTQVAKDFEKETGIKVDLKNVGTNTKEYTQLDNAIEAGSGAPDVAQVEYYAVPQYAIKGNLLDITDKTSGYKDFYTPGPWASVQFAGKVYGLPMDSGPMAFFYNKEVFDKAGVDAEQIKTWDQYYDAAKKIHALGDNYYITSDTGDAGFFDSMTWLAGAKPFQTSSDGSEVTVNLTEDKGVKTFTDFWQKLLDEGLLDTKTAGWSEDWFKGMVDGTIASLFTGAWMPANLANSAADGAGKWRVTQMPTADGSTTNSENGGSSLAVLASTKKADAAYQFIEYANHGAGVATRVAGGAFPADKASLEKDSFKNATTVKNADGQDVDYFGGQKYNEVLAQAAENVSSGYQFLPFEVKARTIFGDYFGKSYTGDQKLSDGVAAWQKALQDYGKDQGFTVK
# Legend:
# Test in all cases: glycan array binding signal (z-score within array); higher = stronger binding
# Conditions in all cases: glycan notation: IUPAC condensed, linker removed
# [1] = target: Gal(b1-3)GalNAc(b1-3)Gal(a1-4)Gal(b1-4)Glc
# Outline: (§1)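 Glycan array binding is given as a within-array Z-score, which can be read as non-binding when negative. The arrays, 3228 of them, came from the Consortium for Functional Glycomics database and were retained only where the protein sequence was available. Z-scores were averaged across arrays of the same protein sequence at different concentrations or buffers and across linkers.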
# [2] = target: Gal(b1-3)GalNAc(b1-4)Gal(b1-4)Glc
# Outline: as §1
# [3] = target: Gal(b1-3)GalNAc(b1-4)[Neu5Ac(a2-3)]Gal(b1-4)Glc
# Outline: as §1
# Gal(b1-3)GlcNAc = target: Gal(b1-3)GlcNAc
# Outline: as §1
# [4] = target: Gal(b1-3)GlcNAc(a1-3)Gal(b1-4)GlcNAc
# Outline: as §1
# [5] = target: Gal(b1-3)GlcNAc(a1-6)Gal(b1-4)GlcNAc
# Outline: as §1
# Gal(b1-3)GlcNAc(b1-2)Man = target: Gal(b1-3)GlcNAc(b1-2)Man
# Outline: as §1
# [6] = target: Gal(b1-3)GlcNAc(b1-2)Man(a1-3)[Gal(b1-3)GlcNAc(b1-2)Man(a1-6)]Man(b1-4)GlcNAc(b1-4)GlcNAc
# Outline: as §1
# [7] = target: Gal(b1-3)GlcNAc(b1-2)Man(a1-3)[Gal(b1-3)GlcNAc(b1-2)Man(a1-6)]Man(b1-4)GlcNAc(b1-4)[Fuc(a1-6)]GlcNAc
# Outline: as §1
# [8] = target: Gal(b1-3)GlcNAc(b1-2)Man(a1-3)[GlcNAc(b1-4)][Gal(b1-3)GlcNAc(b1-2)Man(a1-6)]Man(b1-4)GlcNAc(b1-4)GlcNAc
# Outline: as §1
# [9] = target: Gal(b1-3)GlcNAc(b1-2)[Gal(b1-3)GlcNAc(b1-6)]Man(a1-6)[Gal(b1-3)GlcNAc(b1-2)Man(a1-3)]Man(b1-4)GlcNAc(b1-4)GlcNAc
# Outline: as §1
# [10] = target: Gal(b1-3)GlcNAc(b1-3)Gal(b1-3)GlcNAc
# Outline: as §1
# [11] = target: Gal(b1-3)GlcNAc(b1-3)Gal(b1-4)Glc
# Outline: as §1
# [12] = target: Gal(b1-3)GlcNAc(b1-3)Gal(b1-4)GlcNAc
# Outline: as §1
# [13] = target: Gal(b1-3)GlcNAc(b1-3)Gal(b1-4)GlcNAc(b1-2)Man(a1-3)[Gal(b1-3)GlcNAc(b1-3)Gal(b1-4)GlcNAc(b1-2)Man(a1-6)]Man(b1-4)GlcNAc(b1-4)GlcNAc
# Outline: as §1
# [14] = target: Gal(b1-3)GlcNAc(b1-3)Gal(b1-4)GlcNAc(b1-2)[Gal(b1-3)GlcNAc(b1-3)Gal(b1-4)GlcNAc(b1-6)]Man(a1-6)[Gal(b1-3)GlcNAc(b1-3)Gal(b1-4)GlcNAc(b1-2)Man(a1-3)]Man(b1-4)GlcNAc(b1-4)[Fuc(a1-6)]GlcNAc
# Outline: as §1
# [15] = target: Gal(b1-3)GlcNAc(b1-3)Gal(b1-4)GlcNAc(b1-3)Gal(b1-4)GlcNAc(b1-2)[Gal(b1-3)GlcNAc(b1-3)Gal(b1-4)GlcNAc(b1-3)Gal(b1-4)GlcNAc(b1-6)]Man(a1-6)[Gal(b1-3)GlcNAc(b1-3)Gal(b1-4)GlcNAc(b1-3)Gal(b1-4)GlcNAc(b1-2)Man(a1-3)]Man(b1-4)GlcNAc(b1-4)[Fuc(a1-6)]GlcNAc
# Outline: as §1
# [16] = target: Gal(b1-3)GlcNAc(b1-3)Gal(b1-4)GlcNAc(b1-6)[Gal(b1-3)GlcNAc(b1-3)]Gal(b1-4)Glc
# Outline: as §1
# [17] = target: Gal(b1-3)GlcNAc(b1-3)Gal(b1-4)[Fuc(a1-3)]GlcNAc
# Outline: as §1
# [18] = target: Gal(b1-3)GlcNAc(b1-3)Gal(b1-4)[Fuc(a1-3)]GlcNAc(b1-6)[Gal(b1-3)GlcNAc(b1-3)]Gal(b1-4)Glc
# Outline: as §1
# [19] = target: Gal(b1-3)GlcNAc(b1-3)GalNAc
# Outline: as §1
# [20] = target: Gal(b1-3)GlcNAc(b1-6)Gal(b1-4)GlcNAc
# Outline: as §1
# [21] = target: Gal(b1-3)GlcNAc(b1-6)GalNAc
# Outline: as §1
# [22] = target: Gal(b1-3)GlcNAc(b1-6)[Gal(b1-3)]GalNAc
# Outline: as §1
# Gal(b1-3)GlcNAc6S = target: Gal(b1-3)GlcNAc6S
# Outline: as §1
# [23] = target: Gal(b1-3)[Fuc(a1-4)]GlcNAc
# Outline: as §1
# [24] = target: Gal(b1-3)[Fuc(a1-4)]GlcNAc(b1-2)Man
# Outline: as §1
# [25] = target: Gal(b1-3)[Fuc(a1-4)]GlcNAc(b1-2)Man(a1-3)[Gal(b1-3)[Fuc(a1-4)]GlcNAc(b1-2)Man(a1-6)]Man(b1-4)GlcNAc(b1-4)[Fuc(a1-6)]GlcNAc
# Outline: as §1
# [26] = target: Gal(b1-3)[Fuc(a1-4)]GlcNAc(b1-3)Gal(b1-3)[Fuc(a1-4)]GlcNAc
# Outline: as §1
# [27] = target: Gal(b1-3)[Fuc(a1-4)]GlcNAc(b1-3)Gal(b1-4)[Fuc(a1-3)]GlcNAc
# Outline: as §1
# [28] = target: Gal(b1-3)[Fuc(a1-4)]GlcNAc(b1-6)GalNAc
# Outline: as §1
# [29] = target: Gal(b1-3)[GlcNAc(b1-6)]GalNAc
# Outline: as §1
# [30] = target: Gal(b1-3)[Neu5Ac(a2-6)]GalNAc
# Outline: as §1
# [31] = target: Gal(b1-3)[Neu5Ac(a2-6)]GlcNAc(b1-4)Gal(b1-4)Glc
# Outline: as §1
# [32] = target: Gal(b1-3)[Neu5Ac(b2-6)]GalNAc
# Outline: as §1
# Gal(b1-4)Gal = target: Gal(b1-4)Gal
# Outline: as §1
# [33] = target: Gal(b1-4)GalNAc(a1-3)[Fuc(a1-2)]Gal(b1-4)GlcNAc
# Outline: as §1
# [34] = target: Gal(b1-4)GalNAc(b1-3)[Fuc(a1-2)]Gal(b1-4)GlcNAc
# Outline: as §1
binder,measurement,setting,value
B1,glycan array binding signal (z-score),[1],-0.032
same,glycan array binding signal (z-score),[2],-0.11
same,glycan array binding signal (z-score),[3],-0.13
same,glycan array binding signal (z-score),Gal(b1-3)GlcNAc,-0.124
same,glycan array binding signal (z-score),[4],-0.132
same,glycan array binding signal (z-score),[5],-0.093
same,glycan array binding signal (z-score),Gal(b1-3)GlcNAc(b1-2)Man,0.008
same,glycan array binding signal (z-score),[6],-0.108
same,glycan array binding signal (z-score),[7],-0.125
same,glycan array binding signal (z-score),[8],-0.044
same,glycan array binding signal (z-score),[9],-0.084
same,glycan array binding signal (z-score),[10],-0.076
same,glycan array binding signal (z-score),[11],-0.121
same,glycan array binding signal (z-score),[12],-0.02
same,glycan array binding signal (z-score),[13],0.001
same,glycan array binding signal (z-score),[14],0.042
same,glycan array binding signal (z-score),[15],0.136
same,glycan array binding signal (z-score),[16],-0.114
same,glycan array binding signal (z-score),[17],-0.153
same,glycan array binding signal (z-score),[18],-0.104
same,glycan array binding signal (z-score),[19],-0.12
same,glycan array binding signal (z-score),[20],-0.148
same,glycan array binding signal (z-score),[21],-0.102
same,glycan array binding signal (z-score),[22],0.016
same,glycan array binding signal (z-score),Gal(b1-3)GlcNAc6S,-0.086
same,glycan array binding signal (z-score),[23],-0.115
same,glycan array binding signal (z-score),[24],-0.049
same,glycan array binding signal (z-score),[25],0.231
same,glycan array binding signal (z-score),[26],-0.09
same,glycan array binding signal (z-score),[27],-0.059
same,glycan array binding signal (z-score),[28],-0.025
same,glycan array binding signal (z-score),[29],-0.138
same,glycan array binding signal (z-score),[30],-0.064
same,glycan array binding signal (z-score),[31],-0.133
same,glycan array binding signal (z-score),[32],-0.084
same,glycan array binding signal (z-score),Gal(b1-4)Gal,-0.11
same,glycan array binding signal (z-score),[33],-0.032
same,glycan array binding signal (z-score),[34],-0.08
